Data published in PubChem BioAssay AID488969 (Vanderbilt High Throughput Screening Facility, 2010).
Whole data set: some 110,000 compounds, median “z-score” near -0.1, cut for the highest 2% near 2. The list shows a part of the results. The source made the active and inactive calls.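 How the source made its calls: active means z-score in the third read window above 3 or below -3; inactive means the rest.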

Each molecule was assayed against Metabotropic glutamate receptor 8 (Rattus norvegicus) (UniProt P70579) (assay: rat mGluR8 modulators via GIRK flux, primary screen, cell-based, thallium flux, HTS (AID 488969)). Details: HEK293 rat mGluR8, GIRK (G protein-gated inwardly rectifying potassium channel) thallium flux, FluoZin2; at 10 µM; stronger effect = higher value; submaximal glutamate (EC20) added with thallium.
UniProt P70579, sequence (P70579 whole entry, looked up): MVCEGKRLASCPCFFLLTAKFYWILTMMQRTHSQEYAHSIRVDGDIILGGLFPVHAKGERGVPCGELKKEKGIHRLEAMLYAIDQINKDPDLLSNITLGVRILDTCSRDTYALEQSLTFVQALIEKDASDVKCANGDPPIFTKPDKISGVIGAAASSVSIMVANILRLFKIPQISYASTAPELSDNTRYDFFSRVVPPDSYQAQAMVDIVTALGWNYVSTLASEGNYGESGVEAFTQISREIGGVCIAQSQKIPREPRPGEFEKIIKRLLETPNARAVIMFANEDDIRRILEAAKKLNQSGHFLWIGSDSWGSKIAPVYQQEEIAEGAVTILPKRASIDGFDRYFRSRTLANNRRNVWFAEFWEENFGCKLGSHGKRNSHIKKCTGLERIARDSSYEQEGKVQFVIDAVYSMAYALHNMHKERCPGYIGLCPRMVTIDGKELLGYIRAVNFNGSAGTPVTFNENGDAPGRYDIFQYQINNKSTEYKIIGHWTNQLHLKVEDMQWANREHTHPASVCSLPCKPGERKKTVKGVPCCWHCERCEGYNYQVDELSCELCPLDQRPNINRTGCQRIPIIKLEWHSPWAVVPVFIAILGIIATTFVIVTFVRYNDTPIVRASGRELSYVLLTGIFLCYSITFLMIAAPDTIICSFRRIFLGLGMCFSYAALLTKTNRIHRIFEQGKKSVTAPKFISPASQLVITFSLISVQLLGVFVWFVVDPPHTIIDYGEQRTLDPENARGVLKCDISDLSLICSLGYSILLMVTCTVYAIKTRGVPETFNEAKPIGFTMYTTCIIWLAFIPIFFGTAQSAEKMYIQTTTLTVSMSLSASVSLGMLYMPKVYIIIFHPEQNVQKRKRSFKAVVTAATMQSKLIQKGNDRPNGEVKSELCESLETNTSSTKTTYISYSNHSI

Point of comparison: Cc1nc(N2CCN(C(c3ccccc3)c3ccccc3)CC2)[nH]c(=O)c1C, z-score -0.222. Against it:
- COc1ccccc1C(=O)Oc1cc(N)n(S(=O)(=O)c2ccc(C)cc2)n1 — lower, -0.56
- COc1ccc(OC)c(-c2cc(C3CCN(c4ncccc4[N+](=O)[O-])CC3)[nH]n2)c1 — lower, -0.48
- COc1ccc(OCC(O)CN2CCCCCC2)cc1 (centres undefined) — higher, 0.373
- CCC1Oc2ccccc2N(CC(=O)NCCCN2CCCCC2C)C1=O (centres undefined) — higher, -0.198
- Cc1nc2c(-c3ccccc3)c(C)nn2c(C)c1CCC(=O)NC(C)CCc1ccco1 (centres undefined) — lower, -0.522
- COC(=O)CCC(=O)N1CCc2cc(S(=O)(=O)N3CCN(c4ccccc4Cl)CC3)ccc21 — higher, 0.729
- Cc1ccc(S(=O)(=O)N2Cc3ccccc3CC2C(=O)Nc2cc(C)on2)cc1 (centres undefined) — lower, -1.27
- COc1cc(OC)cc(-c2cc(N)n(S(=O)(=O)Cc3ccccc3)n2)c1 — higher, -0.0712
- COc1ccc(-c2cc(CCCC(=O)NCCc3ccc(OC)cc3OC)no2)cc1 — higher, 0.0917
- Clc1nccnc1-c1ccccc1 — higher, 0.222
- COc1ccc(OC)c(NC(=O)CNC(=O)c2cccs2)c1 — lower, -0.286
- Cc1ccc2c(c1)nnn2C1CCN(S(=O)(=O)c2ccc(C(=O)N(C)C)cc2)CC1 — higher, 0.178
- Cc1nc(-c2ccccc2)sc1C(=O)CSc1ccc(Br)cc1 — higher, -0.108
- CCCCCOC(=O)NCCOC(=O)Nc1ccc(C(=O)OCC)cc1 — higher, -0.155
- CC(=O)c1cccc(NC(=S)NC(=O)c2ccccc2)c1 — higher, 1.63
- CCC(C)NC(=O)COC(=O)c1oc2ccccc2c1CSc1ccc(Cl)cc1 (centres undefined) — lower, -0.66
- CCOc1ccc(N2C(=O)c3cccnc3C2Nc2ccc(OC)cc2)cc1 (centres undefined) — lower, -0.304
- COc1ccccc1CNn1c(-c2cccc(C)c2)nc2ccccc2c1=O — lower, -1.23
- Cc1ccc(-c2ccc(CCC(=O)O)n2-c2ccc(O)cc2)cc1 — lower, -0.338
- CCOc1ccc(-c2nc(S(=O)(=O)c3ccccc3)c(NCc3cccnc3)o2)cc1 — higher, 0.382
- COc1ccc(NC(=O)C23CC4CC(C2)CC(c2ccccc2)(C4)C3)c(OC)c1 — lower, -0.321
- COC(=O)c1ccc(-c2nc(O)c3cnccn23)cc1 — lower, -0.794
- COc1cc(CNC2CCCCC2OC)cc(OC)c1OC (centres undefined) — higher, -0.0819
- Cc1c(Cl)cccc1Nc1nc(N)nc(CSCCO)n1 — higher, 0.0164
- COc1cc(CNCCc2ccc(S(N)(=O)=O)cc2)ccc1OCC(=O)N1CCCCC1 — higher, -0.014
- COC(=O)/C(C(C)=O)=C(/C=C/C=C/N(C)C)N(C)C — higher, 0.241
- O=C(Oc1ccc2ccccc2c1Cl)N1CCCC1 — higher, -0.206
- CCOC(=O)C(NC(=O)NCc1ccc(OC)cc1)(OCC)C(F)(F)F (centres undefined) — lower, -0.306
- COc1ccc(OCC(=O)N2N=C(C(F)F)CC2(O)C(F)F)cc1 (centres undefined) — higher, 1.18
- CCn1c(Cc2cccc3ccccc23)nnc1SCC(=O)Nc1nccs1 — lower, -1
- O=C(CN(Cc1ccco1)C(=O)CNS(=O)(=O)c1ccccc1)NCc1ccc(F)cc1 — higher, 0.109
- COc1ccc(CNC(=O)CS(=O)Cc2nc(-c3ccc(C)cc3)oc2C)cc1 (centres undefined) — lower, -0.37
- Cc1ccnc(SCC(=O)n2c3c(c4ccccc42)CC(C)CC3)n1 (centres undefined) — higher, -0.187
- C=CCc1cccc2cc(C(=O)N3CCN(C(=O)OCC)CC3)c(=O)oc12 — higher, 0.153
- CCOCCCNC(=O)N[C@@H](C)C(=O)OC — lower, -0.392
- CCc1nc(NCCN2CCOCC2)c(C#N)c2c1CCCC2 — lower, -0.323
- CC1(C)NC(=O)N(CC(O)CN2CCCCC2)C1=O (centres undefined) — higher, 0.323
- CCC(C)NC(=O)CSc1nnc(-c2cc(-c3cccs3)nc3ccccc23)o1 (centres undefined) — lower, -0.652
- CC(C)OC(=O)CC(=O)CSc1nc2c(cc1C#N)CCCCC2 — higher, -0.045
- COc1ccc2[nH]c(=O)c(CN(Cc3cccs3)C(=S)Nc3ccccc3)cc2c1 — higher, -0.195
- CCn1nnnc1SCC(=O)Nc1nc(-c2cccs2)cs1 — lower, -0.439
- CSc1nc2ccc3nc(NC(=O)c4ccccc4)sc3c2s1 — lower, -0.431
- Cc1ccc(C(=O)N/C(=C\c2ccc(-c3cc(Cl)ccc3Cl)o2)C(=O)NCc2cccnc2)cc1 — lower, -0.283
- O=C(/C=C/c1ccccc1Cl)N1CCN(c2ncccn2)CC1 — higher, 0.458
- CCOc1ccc(-c2nc(-c3cccnc3)no2)cc1OCC — higher, 0.841
- COc1ccc(-c2nnn(CC(=O)N(Cc3cccs3)C(C)C(=O)NCCC(C)C)n2)cc1OC (centres undefined) — lower, -0.592
- CC(c1ccco1)N(C(=O)COc1ccc(Cl)cc1Cl)c1ccccn1 (centres undefined) — higher, -0.193
- O=C(/C=C/c1ccco1)NC(=S)Nc1ccc(N2CCCC2)cc1 — higher, -0.0149
- COc1ccc(CCN2CC(C#N)=C3c4cc(OC)c(OC)cc4CCN3C2)cc1OC — lower, -0.854
- Cc1ccccc1CN1CCN(CC(=O)NCc2ccccc2)C1=O — higher, 0.0216
- CCOC(=O)c1c(C)sc2c1N(C(C)=O)c1cc(Cl)ccc1S2 — lower, -0.684
- COc1ccc(-c2noc(CCC(=O)N3CCN(Cc4ccccc4)CC3)n2)cc1 — lower, -0.368
- CC1CCN(C(=O)CNS(=O)(=O)c2ccc(Br)s2)CC1 — higher, 0.784
- O=S(=O)(c1ccc(F)cc1)N(CCO)CC(O)Cn1c2ccccc2c2ccccc21 (centres undefined) — higher, -0.131
- CCc1nnc(NC(=O)CSc2ccc(-c3nc4ccccc4[nH]3)cn2)s1 — higher, -0.181
- Cc1ccc(CNC(=O)c2ccc(C#CC(C)(C)O)s2)cc1 — lower, -0.323
- CS(=O)(=O)N(Cc1ccccc1)c1ccc(C(=O)N2CCOCC2)cc1 — higher, 0.0222
- COc1ccc(C(=O)Nc2ccc(Cl)cc2C(=O)N2CCCC(C)C2)cc1 (centres undefined) — lower, -0.264
- C(#Cc1ccccc1)Cn1nnc2ccccc21 — lower, -0.98
- CCCSc1oc(-c2ccco2)nc1S(=O)(=O)c1ccccc1 — lower, -0.357
- CCOC(=O)C1CCN(Cc2coc3ccc(Cl)cc3c2=O)CC1 — lower, -0.298
- Cc1ccccc1-n1c(C)cc(/C=C2/C(=N)N3C(c4ccccc4)=CSC3=NC2=O)c1C — higher, 0.264
- O=C(O)Cn1cccc1C(=O)c1ccccc1 — higher, 0.209
- CC1CCC/C(=C\Nc2ccc3c(c2)OCO3)C1=O (centres undefined) — higher, -0.0151
- O=C(CCC(=O)OCC(=O)c1ccc(Br)cc1)Nc1ccc(Br)c2cccnc12 — higher, 0.139
- C=CCN(C1CCCCC1)S(=O)(=O)c1ccc2c(c1)oc(=O)n2C — higher, -0.178
- CCCCn1c(CCCNC(=O)CC)nc2ccccc21 — lower, -0.571
- COc1cccc(NC(=O)c2nc3nc(C)cc(C(F)F)n3n2)c1 — higher, -0.116
- CCOC(=O)N1CCC(N2Cc3cccc(C(=O)NCC4CCN(CC(C)C)C4)c3C2=O)CC1 (centres undefined) — higher, -0.12
- O=c1c2ccccc2n2c(-c3ccc(F)cc3)nnc2n1Cc1ccccc1 — higher, -0.162
- CC(C)(C)c1n[nH]c(=S)n(/N=C/c2cccs2)c1=O — higher, 0.25
- c1ccc(-n2cnnc2SCc2cn3cccnc3n2)cc1 — higher, -0.0444
- COc1ccc(C)cc1N(C(=O)c1ccc(F)cc1)c1nc2ccccc2s1 — higher, 0.313
- Cc1cc2c(c(SCC(=O)N(C)c3ccccc3)n1)C(=O)OC2 — lower, -0.234
- Cc1ccc(S(=O)(=O)N2CCN(c3ccc(S(=O)(=O)N4CCOCC4)cn3)CC2)cc1 — higher, 0.062
- CCC(CO)NC(=O)c1cc2c(s1)CCC2 (centres undefined) — lower, -0.373
- COc1ccc(N(Cc2cc3cc(OC)ccc3[nH]c2=O)C(=O)C2CCCO2)cc1 (centres undefined) — higher, 0.133
- Cc1ccc(S(=O)(=O)N2CCN(C3CC(=O)N(CCc4ccccc4)C3=O)CC2)cc1C (centres undefined) — lower, -0.331
- CCN(CC)c1ccc(C(=O)OCC(=O)NCC2CCCO2)cc1 (centres undefined) — higher, 0.39
- O=C(NCc1ccc(Cl)cc1)c1ccc(Cn2cc(C(F)(F)F)ccc2=O)cc1 — lower, -0.381
- Cc1ccc2c(CC(=O)OCn3nnc4ccccc4c3=O)coc2c1 — lower, -0.599
- O=C(NCC1CCCO1)C1c2ccccc2C(=O)N1C1CCCCCC1 (centres undefined) — lower, -0.616
- Cc1ccc(C(=O)O)cc1NC(=O)C1CCCN1S(=O)(=O)c1cccc2nsnc12 (centres undefined) — higher, -0.022
- COc1ccccc1NC(=O)Cn1c(=O)oc2ccccc21 — higher, -0.038
- CCOC(=O)C(=O)Nc1nnc(C2CCCCC2)s1 — lower, -0.228
- CCOC(=O)N1CCN(C(=O)C2CCN(c3ncnc4c3sc3cccc(F)c34)CC2)CC1 — lower, -2.12
- COc1ccc(-c2nnc(SCC(=O)Oc3ccc(C)cc3)o2)cc1 — lower, -0.915
- O=C(Nc1cccc(S(=O)(=O)N2CCCCC2)c1)c1ccc2c(c1)OCO2 — lower, -0.45
- Cc1csc2nc3ccccc3c(=O)n12 — higher, -0.0425
- FC(F)(F)c1cc(C(F)(F)F)c2ccc(N/N=C/c3cccc(Cl)c3)nc2n1 — higher, -0.114
- COc1ccc(-c2ccc(Nc3ccc(C(=O)N4CCOCC4)cc3)nn2)cc1OC — lower, -0.327
- Cc1[nH]c(=O)[nH]c(=O)c1S(=O)(=O)N1CCC(C(=O)N2CCN(Cc3ccccc3)CC2)CC1 — higher, 0.432
- COc1ccc(OC)c(S(=O)(=O)Nc2cccnc2)c1 — higher, 0.0762
- CCN1CCN(C(=O)CCN2C(=O)COc3ccc(C)cc32)CC1 — higher, 0.156
- CC1(C)Cc2ccccc2C(c2cc3ccccc3oc2=O)=N1 — higher, -0.0977
- COC(=O)c1ccc(NC(=O)Nc2ccc(F)c(Cl)c2)cc1 — higher, -0.0366
- CC(NC(=S)Nc1ccccc1OC(F)F)C(C)(C)C (centres undefined) — lower, -0.263
- CCC1CCCCN1Cc1ccc(OC)c(C)c1C (centres undefined) — higher, 0.363
- CCN(CC)c1ccc(C2N(C(=O)N3CCOCC3)CCN2S(=O)(=O)c2ccc(C)cc2)cc1 (centres undefined) — higher, -0.201
- CC(CC(=O)O)CC(=O)Nc1ccc(S(N)(=O)=O)cc1 (centres undefined) — higher, -0.0167
- Cc1ccc(NC(=S)NCCc2ccc(S(N)(=O)=O)cc2)c(C)c1 — higher, -0.0554
- Cc1ccc(C)c(OCC(=O)N/N=C/c2c(C)nn(-c3ccccc3)c2Cl)c1 — higher, 2.98
- COc1ccccc1C(=O)NCCNC(=O)c1ccco1 — higher, 0.00734
- O=C(Nc1nccs1)c1cc2sccc2n1Cc1ccc(Cl)cc1 — higher, 0.813
- COC(=O)C(Cc1ccccc1)NC(=O)COc1ccc(C(C)(C)C)cc1 (centres undefined) — higher, 0.0425
- COCCN1C=C(C(=O)OC)C(c2ccc(OC)c(OC)c2)C(C(=O)OC)=C1 — higher, 0.493
- C/C(N)=C(/C#N)C(=O)COC(=O)C(NS(=O)(=O)c1ccc(Cl)cc1)C(C)O (centres undefined) — higher, 1.18

COc1ccc(CCC(=O)NCc2cnn(C)c2)cc1 was tested, and the z-score was active: 3.37.
